At least one peptide structure holds a part that was inferred or is arguable (an end, a ring closure or a residue). Some entries repeat one wording, which the source may state once for all of them. *1 amine or outer side, *2 acyl side, *3 side chain or, on linkers, in order; H or OH if unused. Where a SMILES comes first, the peptide text is derived from it. Bridges are numbered along the chain shown (N, C = ends). Roman numbers before positions name the chains, in order. [ ]: non-standard residue; d: D form. The star is where a group is joined. TATA = O=C(CC[*:1])N1CN(C(=O)CC[*:2])CN(C(=O)CC[*:3])C1; Dolaproine = CO[C@@H]([C@@H]1CCCN1)[C@@H](C)C(=O)O; Dil = CC[C@H](C)[C@H](NC)[C@@H](CC(=O)O)OC; 1Nal = N[C@@H](Cc1cccc2ccccc12)C(=O)O; X3 = O=C(CCCC(=O)[*:2])NCCC(=O)[*:1]; PABC = O=C(OCc1ccc(N[*:1])cc1)[*:2]; X4 = C[C@@H](N*)[C@@H](O)c1ccccc1; Cya = N[C@@H](CS(=O)(=O)O)C(=O)O; Hyp = O=C(O)[C@@H]1C[C@@H](O)CN1; dCya = N[C@H](CS(=O)(=O)O)C(=O)O; hArg = N=C(N)NCCCC[C@H](N)C(=O)O; Cit = NC(=O)NCCC[C@H](N)C(=O)O; NMeV = CN[C@H](C(=O)O)C(C)C; Sar = CNCC(=O)O
Tests used:
NCI-H292 xenograft = assay: Example 5: in vivo efficacy in NCI-H292 xenograft (NSCLC model) in BALB/c nude mice; design: species or system Mus Musculus; conditions: for antitumor activity (in words): 3 mg/kg; for Tumor volume / T/C / TGI: 3 mpk, qw
human Nectin-4 = target: T1, human Nectin-4 (Homo sapiens, UniProt Q96NY8); assay: Nectin-4 Biacore SPR binding assay; conditions: for Kd: read-out: Human SPR Kd, bicyclic drug conjugates (Table 4)
T1 sequence (Q96NY8 32-349): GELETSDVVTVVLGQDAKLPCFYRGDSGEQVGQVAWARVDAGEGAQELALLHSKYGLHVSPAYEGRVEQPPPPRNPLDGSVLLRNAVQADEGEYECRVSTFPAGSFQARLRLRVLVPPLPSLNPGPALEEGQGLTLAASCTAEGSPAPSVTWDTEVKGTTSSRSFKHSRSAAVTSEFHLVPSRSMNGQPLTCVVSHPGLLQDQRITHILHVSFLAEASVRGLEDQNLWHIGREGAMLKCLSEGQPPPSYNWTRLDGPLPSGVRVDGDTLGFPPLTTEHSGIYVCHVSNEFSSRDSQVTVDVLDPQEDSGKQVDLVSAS

[1] = iv, day 0 after start of treatment

In the case of `CC[C@H](C)[C@@H]([C@@H](CC(=O)N1CCC[C@H]1[C@H](OC)[C@@H](C)C(=O)N[C@H](C)[C@@H](O)c1ccccc1)OC)N(C)C(=O)[C@@H](NC(=O)[C@H](C(C)C)N(C)C(=O)OCc1ccc(NC(=O)[C@H](CCCNC(N)=O)NC(=O)[C@@H](NC(=O)CCCC(=O)NCCC(=O)N(C)CC(=O)N(C)CC(=O)N(C)CC(=O)N(C)CC(=O)N(C)CC(=O)N(C)CC(=O)N(C)CC(=O)N(C)CC(=O)N(C)CC(=O)N(C)CC(=O)N[C@H]2CSCCC(=O)N3CN4CN(C3)C(=O)CCSC[C@H](NC(=O)[C@@H](CS(=O)(=O)O)NC(=O)[C@H](Cc3cccc5ccccc35)NC(=O)[C@@H]3CCCN3C2=O)C(=O)N[C@@H](CCSC)C(=O)N[C@@H](CCCCNC(=N)N)C(=O)N[C@@H](CC(=O)O)C(=O)N[C@@H](Cc2c[nH]c3ccccc23)C(=O)N[C@@H](CO)C(=O)N[C@@H]([C@@H](C)O)C(=O)N2CCC[C@H]2C(=O)N2C[C@H](O)C[C@H]2C(=O)N[C@@H](Cc2c[nH]c3ccccc23)C(=O)N[C@H](C(N)=O)CSCCC4=O)C(C)C)cc1)C(C)C` [BCY8783, MMAE-PABC-Cit-Val-Glutaryl-BCY8269] (I: [Sar][Sar][Sar][Sar][Sar][Sar][Sar][Sar][Sar][Sar]CP[1Nal][dCya]CM[hArg]DWSTP[Hyp]WC-NH2 / II: V[Cit][PABC][NMeV]V[Dil][Dolaproine]-X4; linker I:11-I:15-I:25 via TATA; linker I:N-II:N via X3), the “antitumor activity (in words)” value (NCI-H292 xenograft) is reported as “regressed the tumors potently”, the Tumor volume (NCI-H292 xenograft; [1]) is reported as 167 ± 28 mm^3 and the Tumor volume (NCI-H292 xenograft; iv, day 2) is reported as 182 ± 27 mm^3. For the same compound, the Tumor volume (NCI-H292 xenograft; iv, day 4) was 161 ± 40 mm^3, the Tumor volume (NCI-H292 xenograft; iv, day 7) was 137 ± 19 mm^3 and the Tumor volume (NCI-H292 xenograft; iv, day 9) was 135 ± 22 mm^3. It also gave a Tumor volume (NCI-H292 xenograft; iv, day 11) of 97 ± 20 mm^3, a Tumor volume (NCI-H292 xenograft; iv, day 14) of 97 ± 19 mm^3 and a T/C (NCI-H292 xenograft; day 14) of 11.5%. The TGI (NCI-H292 xenograft; day 14) was 110.3%, the “Tumor volume” value (NCI-H292 xenograft; day 14, Mean ± SEM (Table 24)) was 97 ± 19 mm^3 and the “binding to human Nectin-4 in the SPR binding assay (in words)” value (human Nectin-4) was “excellent binding”. For the same compound, the Kd (human Nectin-4) was 0.804 nM.
For `CC[C@H](C)[C@@H]([C@@H](CC(=O)N1CCC[C@H]1[C@H](OC)[C@@H](C)C(=O)N[C@H](C)[C@@H](O)c1ccccc1)OC)N(C)C(=O)[C@@H](NC(=O)[C@H](C(C)C)N(C)C(=O)OCc1ccc(NC(=O)[C@H](CCCNC(N)=O)NC(=O)[C@@H](NC(=O)CCCC(=O)NCCC(=O)N(C)CC(=O)N(C)CC(=O)N(C)CC(=O)N(C)CC(=O)N(C)CC(=O)N(C)CC(=O)N(C)CC(=O)N(C)CC(=O)N(C)CC(=O)N(C)CC(=O)N[C@H]2CSCCC(=O)N3CN4CN(C3)C(=O)CCSC[C@H](NC(=O)[C@@H](CS(=O)(=O)O)NC(=O)[C@H](Cc3cccc5ccccc35)NC(=O)[C@@H]3CCCN3C2=O)C(=O)N[C@@H](CCSC)C(=O)N[C@@H](CCCCNC(=N)N)C(=O)N[C@@H](CS(=O)(=O)O)C(=O)N[C@@H](Cc2c[nH]c3ccccc23)C(=O)N[C@@H](CO)C(=O)N[C@@H]([C@@H](C)O)C(=O)N2CCC[C@H]2C(=O)N2C[C@H](O)C[C@H]2C(=O)N[C@@H](Cc2c[nH]c3ccccc23)C(=O)N[C@H](C(N)=O)CSCCC4=O)C(C)C)cc1)C(C)C` [BCY8784, MMAE-PABC-Cit-Val-Glutaryl-BCY8273] (I: [Sar][Sar][Sar][Sar][Sar][Sar][Sar][Sar][Sar][Sar]CP[1Nal][dCya]CM[hArg][Cya]WSTP[Hyp]WC-NH2 / II: V[Cit][PABC][NMeV]V[Dil][Dolaproine]-X4; linker I:11-I:15-I:25 via TATA; linker I:N-II:N via X3), the “antitumor activity (in words)” value (NCI-H292 xenograft) was “regressed the tumors potently”, the Tumor volume (NCI-H292 xenograft; [1]) was 167 ± 36 mm^3 and the Tumor volume (NCI-H292 xenograft; iv, day 2) was 165 ± 28 mm^3. For the same compound, the Tumor volume (NCI-H292 xenograft; iv, day 4) was 111 ± 19 mm^3, the Tumor volume (NCI-H292 xenograft; iv, day 7) was 121 ± 12 mm^3 and the Tumor volume (NCI-H292 xenograft; iv, day 9) was 123 ± 8 mm^3. The Tumor volume (NCI-H292 xenograft; iv, day 11) was 99 ± 10 mm^3, the Tumor volume (NCI-H292 xenograft; iv, day 14) was 94 ± 7 mm^3 and the T/C (NCI-H292 xenograft; day 14) was 11.1%. The TGI (NCI-H292 xenograft; day 14) was 110.8%, the “Tumor volume” value (NCI-H292 xenograft; day 14, Mean ± SEM (Table 24)) was 94 ± 7 mm^3 and the “binding to human Nectin-4 in the SPR binding assay (in words)” value (human Nectin-4) was “excellent binding”. For the same compound, the Kd (human Nectin-4) was 0.662 nM.

— US12459974B2, “Bicyclic peptide ligands specific for Nectin-4” (priority 2018, dated 2025)
